Test results taken from PubChem BioAssay AID894 (National Center for Advancing Translational Sciences (NCATS), 2007).
Several values for one entry are separate records, joined by “and”; a condition that tells them apart may be missing. Identical values can stand only once. The whole screen tested about 150,000 compounds, of which about 6,500 (4.3%) were called active. Inconclusive results, whose numbers are uncertain, are shown with a selection of clear calls. Calls follow the shape of the dose curve; as a rule, active = well fitted inhibition curve with a large enough effect (not every such curve was filed as active); inconclusive = small, poorly fitted or top-dose-only effect, or another doubt; inactive = no such curve, though single readings can be large or run the other way. Potencies beside an inconclusive call are fits to weak or partial responses and may not hold up.

target: 15-hydroxyprostaglandin dehydrogenase [NAD(+)] (Homo sapiens) (UniProt P15428); experiment: qHTS Assay for Inhibitors of HPGD (15-Hydroxyprostaglandin Dehydrogenase); settings: purified HPGD, NADH fluorescence kinetic, PGE2 substrate; activity change, negative = inhibition: active compounds read low
Procedure, shortened: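 20 nM HPGD preincubated 15 min at room temperature with compound in 50 mM Tris-HCl pH 8, 0.01% Tween 20. Started with 1 mM NAD+ and 30 uM prostaglandin E2; NADH fluorescence (360/450 nm) read 5 times over 30-s intervals, last minus first.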
% is scaled to controls: 0 for no effect and ±100 for the full control effect; potency is read from the fitted curve at half-maximal effect; tags tell the direction and shape of the fitted curve.

UniProt P15428, sequence (P15428 whole entry, looked up): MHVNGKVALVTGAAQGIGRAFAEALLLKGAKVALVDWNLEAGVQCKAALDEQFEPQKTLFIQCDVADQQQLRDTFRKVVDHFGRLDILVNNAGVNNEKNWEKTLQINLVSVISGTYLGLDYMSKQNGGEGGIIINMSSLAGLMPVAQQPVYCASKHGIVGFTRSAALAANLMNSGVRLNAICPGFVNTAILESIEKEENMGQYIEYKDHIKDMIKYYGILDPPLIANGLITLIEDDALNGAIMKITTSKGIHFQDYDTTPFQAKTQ

Row | SMILES | Potency | activity change, negative = inhibition
1 | CCOC(=O)Cc1c(C)nc2c(-c3ccc(Cl)cc3)c(C)[nH]n2c1=O | inconclusive: 31.6 µM [inhibitor, partial curve] | 
2 | COc1ccc(N(Cc2ccccc2)S(=O)(=O)c2cccc(C(=O)NC3=NCCS3)c2)cc1 |  | inactive: -7.58%
3 | CCOC(=O)c1[nH]c2ccc(OC)cc2c1NC(=O)CCN1CCc2ccccc2C1 | inconclusive: 28.2 µM [inhibitor, partial curve] | 
4 | N#Cc1c[nH]n2c(=O)cc(Cc3ccccc3)nc12 | inconclusive: 20 µM [inhibitor, partial curve] | 
5 | CCCS(=O)(=O)NCCc1cc2cc(C)c(C)cc2[nH]c1=O |  | inactive: -23.2%
6 | Cc1ccc(Oc2nc3ccccn3c(=O)c2/C=C(\C#N)C(=O)Nc2c(C)n(C)n(-c3ccccc3)c2=O)c(C)c1 | inconclusive: 25.1 µM [inhibitor, partial curve, poor fit] | 
7 | Cc1ccc(S(=O)(=O)N2CC=C(c3c(C)n(C)c4ccccc34)CC2)cc1 | inconclusive: 31.6 µM [inhibitor, partial curve] | 
8 | COc1cc2c(OC)cccc2cc1C(=O)O | inconclusive: 28.2 µM [inhibitor, partial curve] | 
9 | O=C1Nc2ccccc2SC(c2ccccc2)C1O (configuration not stated) | active: 28.2 µM | 
10 | COc1ccc2c(c1)c1ncn(CCN3CCNCC3)c(=O)c1n2C | inconclusive: 28.2 µM [inhibitor, partial curve] | 
11 | COC(=O)c1cc(O)c(OCc2ccccc2)c(O)c1 | inconclusive: 28.2 µM [inhibitor, partial curve] | 
12 | Cn1nc([N+](=O)[O-])nc1N1CCOCC1 |  | inactive: -9.14%
13 | COc1ccc(-c2nn(C)c(=O)c3ccccc23)cc1NC(=O)COc1ccccc1 | inconclusive: 20 µM [inhibitor, partial curve] | 
14 | CSc1nn(CCc2ccncc2)c(=S)s1 | inconclusive: 35.5 µM [inhibitor, single point] | 
15 | CCOC(=O)c1cc(-c2ccccc2)nc2nc(N3CCCCC3)sc12 | inconclusive: 31.6 µM [inhibitor, partial curve] | 
16 | Cc1ccc(Cn2c(=O)n(CCC(=O)NCc3ccc4c(c3)OCO4)c(=O)c3ccccc32)cc1 |  | inactive: -18.3%
17 | Cc1sc(NC(=O)c2ccco2)c(C(c2cccnc2)N2CCN(c3ccc(F)cc3)CC2)c1C (configuration not stated) | inconclusive: 39.8 µM [inhibitor, single point] | 
18 | O=C(Cc1cccs1)N1CCCC(c2nc3c(nnn3Cc3ccccc3Cl)c(=O)[nH]2)C1 (configuration not stated) | inconclusive: 15.8 µM [inhibitor, partial curve] | 
19 | COc1cc(C2CC(=O)N3CN(Cc4ccco4)CSC3=C2C#N)ccc1OCc1ccccc1 (configuration not stated) | active: 25.1 µM | 
20 | O=C(NCc1ccccc1)c1ccc(-c2ccccc2F)o1 |  | inactive: -17.5%
21 | CCS(=O)(=O)N1CCN(c2ccc([N+](=O)[O-])c(N3CCOCC3)c2)CC1 | inconclusive: 22.4 µM [inhibitor, partial curve, poor fit] | 

Row | SMILES | Potency | activity change, negative = inhibition
22 | CCOc1ccc2[nH]c(=O)c(CN(CCc3ccccc3)C(=O)N3CCOCC3)cc2c1 | inconclusive: 28.2 µM [inhibitor, partial curve] | 
23 | CCCCNC(=O)/C(C#N)=c1\s/c(=C\c2ccccc2OC(F)F)c(=O)n1CCCOC |  | inactive: -22.7%
24 | COc1ccc(/C=N/NC(=O)c2ccc(NC(=O)c3ccccc3Br)cc2)cc1 | inconclusive: 15.8 µM [inhibitor, partial curve] | 
25 | CCNC(=O)c1ccc(-n2nc(C)cc2-c2ccccc2)cc1 | inconclusive: 39.8 µM [inhibitor, partial curve] | 
26 | c1ccc(CNc2nc3ccccc3n3cnnc23)cc1 | inconclusive: 25.1 µM [inhibitor, partial curve] | 
27 | C/C(=N\OC(=O)c1cccc(C(F)(F)F)c1)c1sc(-c2ccccc2)nc1C | inconclusive: 14.1 µM [inhibitor, partial curve, poor fit] | 
28 | CCc1c(C)sc(NC(=O)c2cccs2)c1C(=O)OC(C)C | inconclusive: 14.1 µM [inhibitor, partial curve] | 
29 | Cc1ccc(-c2nc3c(cnn3-c3ccccc3)c(=O)o2)cc1 | inconclusive: 22.4 µM [inhibitor, partial curve] | 
30 | COCc1[nH]nc2c1C(c1ccc(OC)cc1)C(C#N)=C(N)O2 (configuration not stated) |  | inactive: -10%
31 | COC(=O)c1cc(-c2ccc(C)o2)nc2ccccc12 | inconclusive: 22.4 µM [inhibitor, partial curve] | 
32 | COc1ccc(COc2cc(-c3cccc(OC)c3)nc3ccc(NC(C)=O)cc23)cc1 | inconclusive: 28.2 µM [inhibitor, partial curve] and inconclusive: 35.5 µM [inhibitor, partial curve] | 
33 | CCOc1cc2nc(-c3ccc(OC)c(OC)c3)nc(N3CCOCC3)c2cc1OC | inconclusive: 28.2 µM [inhibitor, partial curve] | 
34 | C/C(=N/NC(=O)c1ccoc1C)C12CC3CC(CC(C3)C1)C2 |  | inactive: -10.4%
35 | CCN1C(=O)/C(=C2\SC(=S)N(CC3CCCO3)C2=O)c2ccccc21 (configuration not stated) |  | inactive: -1.91%
36 | C=CCN1C=CC(=C/C=C(/C#N)C(=O)OCC)C=C1 | inconclusive: 28.2 µM [inhibitor, single point] | 
37 | Cc1ccc(C(=O)NCc2ccccn2)o1 | inconclusive: 25.1 µM [inhibitor, single point] | 
38 | CC(Oc1ccc(Cl)cc1Cl)C(=O)Nc1cccnc1 (configuration not stated) | inconclusive: 28.2 µM [inhibitor, partial curve] | 
39 | Cc1cc(C)c(S(=O)(=O)c2ccccc2)c(OC(=O)c2c(Cl)cccc2Cl)n1 |  | inactive: -6.93%
40 | CC1=NN(Cc2ccccc2)C(=O)/C1=C\c1ccc(N(C)C)cc1 |  | inactive: -6.04%
41 | CCOC(=O)N1CCN(C(=O)CSc2nc(-c3cccc(C)c3)ns2)CC1 | inconclusive: 31.6 µM [inhibitor, single point] | 
42 | COCc1cc(C)nc2sc(C(=O)N3CCCC3)c(N)c12 | active: 2.51 µM | 
